Laboratory results reported in the RNAGym collection of RNA variant scans (doi:10.7554/elife.90254).
Read counts are not given, so values of variants with three or more changes are uncertain.

B1: LINE1-full (parent)
chain: UACGUAGGUGGUUUUCCCCUGAUAGUGCUAAGGGGGCCUGGAAGUUUGGACUGGGCAGAGCUCAACACAGCGUGGCAAAGUGGCUGUGGCUAGACUGCCUCUCUGGAUUCCUCGUCACUCAGCAGGGCAUCUCUGAGAGAAAUGCC

Variants of: B1
Assay: self-cleavage, relative activity (ratio to wild type); higher = more cleavage; in vitro, sequencing; the parent is a self-cleaving ribozyme
In the case of UACGUAGGUGGUUUUCCCCUGAUAGUGCUAAGGGGGCCUGGAAGUUUGGACUGGGCAGAGCUCAACACAGCGUGGCAAGGUGGCUGUGGCUAGACUGCCUCUCUGGACUCCUCGUCACUCAGCAGGGCAUCUCUGAGAGAAAAGCC, the self-cleavage is reported as 1.17.
Work on UACGUAGGUGGUUUUCCCCUGAUAGUGCUAAGGGGGCCUGGAAGUUUGGACUGGGCAGAGCUCAACACAGCGUGGCAAGGUGGCUGUGGCUAGACUGCCUCUCUGGAUUCCUCGUCACUCAGCAGAGCAUCUCAGAGAGAAAUGCC yielded a self-cleavage of 1.34.
Variant UACGUAGGUGGUUUUCCCCUGAUAGUGCUAAGGGGGCCUGGAAGUUUGGACUGGGCAGAGCUCAACACAGCGUGGCAAGGUGGCUGUGGCUAGACUGCCUCUCCGGAUUCCUCGUCACUCAGCAGGGCAUCCCUGAGAGAAAUGCC has a self-cleavage of 0.66.
For UACGUAGGUGGUUUUCCCCUGAUAGUGCUAAGGGGGCCUGGAAGUUUGGACUGGGCAGAGCUCAACACAGCGUGGCAAGGAGGCUGUGGCUAGAUUGCCUCUCUGGAUUCCUCGUCACUCAGCAGGGCAUCUCUGAGAGAAAUGCC, the self-cleavage was 0.33.
Variant UACGUAGGUGGUUUUCCCCUGAUAGUGCUAAGGGGGCCUGGAAGUUUGGACUGGGCAGAGCUCAACACAGCGUGGCAAGGUGGCCGUGGCUAGACUGCCUCUCUGGAUUCCUCGUCACUCAGCAGGGCAUCUCUGAGAGAAACGCC has a self-cleavage of 0.29.
Work on UACGUAGGUGGUUUUCCCCUGAUAGUGCUAAGGGGGCCUGGAAGUUUGGACUGGGCAGAGCUCAACACAGCGUGGCAAGGUGGCUGUGGCUAGACUGCCACUCUGGAUUCCUCGUCACUCAGCAGGGCGUCUCUGAGAGAAAUGCC yielded a self-cleavage of 0.49.
UACGUAGGUGGUUUUCCCCUGAUAGUGCUAAGGGGGCCUGGAAGUUUGGACUGGGCAGAGCUCAACACAGCGUGGCAAGGUGGCUGUGGCUAGACUGCCACUCUGGAUUCCUCGUCACUCAGCAGGGCUUCUCUGAGAGAAAUGCC gave a self-cleavage of 1.15.
UACGUAGGUGGUUUUCCCCUGAUAGUGCUAAGGGGGCCUGGAAGUUUGGACUGGGCAGAGCUCAACACAGCGUGGCAAGGUGACUGUGGCUAGACUGCCUCUCUGGAUUCCUUGUCACUCAGCAGGGCAUCUCUGAGAGAAAUGCC showed a self-cleavage of 0.65.
For UACGUAGGUGGUUUUCCCCUGAUAGUGCUAAGGGGGCCUGGAAGUUUGGACUGGGCAGAGCUCAACACAGCGUGGCAAGGUGGCUGCGGCUAGACUGCCUCUCAGGAUUCCUCGUCACUCAGCAGGGCAUCUCUGAGAGGAAUGCC, the self-cleavage was 0.
UACGUAGGUGGUUUUCCCCUGAUAGUGCUAAGGGGGCCUGGAAGUUUGGACUGGGCAGAGCUCAACACAGCGUGGCAAGGCGGCUGUGGCUAGACUGCCUCUCUGGAUUCCUCGUCACUCAGCAGGGCAUCUCUGAGAUAAAUGCC showed a self-cleavage of 0.76.
Work on UACGUAGGUGGUUUUCCCCUGAUAGUGCUAAGGGGGCCUGGAAGUUUGGACUGGGCAGAGCUCAACACAGCGUGGCAAGGUGGCUGUGGCUAGACUGCCCCUCUGGAUUCCUCGUCACUCAGCAGGGCAUCUCUGAGAGAGAUGCC yielded a self-cleavage of 1.41.
Work on UACGUAGGUGGUUUUCCCCUGAUAGUGCUAAGGGGGCCUGGAAGUUUGGACUGGGCAGAGCUCAACACAGCGUGGCAAGGUGGCUGUGGCUAGACAGCCUCUCUGGAUUCCUCGUCACUCAGCAGGGCAUCUCUGAGAGGAAUGCC yielded a self-cleavage of 0.09.
In the case of UACGUAGGUGGUUUUCCCCUGAUAGUGCUAAGGGGGCCUGGAAGUUUGGACUGGGCAGAGCUCAACACAGCGUGGCAAGGUGGCCGUGGCUAGACUGCCUCUCUGGAUUCCUCGUCACUCAGCAGGGCAUCUCUGAGGGAAAUGCC, the self-cleavage is reported as 0.3.
In the case of UACGUAGGUGGUUUUCCCCUGAUAGUGCUAAGGGGGCCUGGAAGUUUGGACUGGGCAGAGCUCAACACAGCGUGGCAAGGUGGCAGUGGCUAGACAGCCUCUCUGGAUUCCUCGUCACUCAGCAGGGCAUCUCUGAGAGAAAUGCC, the self-cleavage is reported as 0.
In the case of UACGUAGGUGGUUUUCCCCUGAUAGUGCUAAGGGGGCCUGGAAGUUUGGACUGGGCAGAGCUCAACACAGCGUGGCAAGGUGGCCGUGGCUAGACUGCCUCUCUGGAUUCCUCGUCACUCAGCAGGGCAUCUCUGGGAGAAAUGCC, the self-cleavage is reported as 0.16.
With UACGUAGGUGGUUUUCCCCUGAUAGUGCUAAGGGGGCCUGGAAGUUUGGACUGGGCAGAGCUCAACACAGCGUGGCAAGGAGGCUGAGGCUAGACUGCCUCUCUGGGAUCCUCGUCACUCAGCAGGGCAUCUCUGAGAGAAAUGCC the self-cleavage was 0.23.
Work on UACGUAGGUGGUUUUCCCCUGAUAGUGCUAAGGGGGCCUGGAAGUUUGGACUGGGCAGAGCUCAACACAGCGUGGCAAGGUGGCAGUGGCUAGGCUGCCUCUCUGGAUUCCUCGUCACUCAGCAGGGCAUCUCUGAGAGAAAUGCC yielded a self-cleavage of 0.27.
Work on UACGUAGGUGGUUUUCCCCUGAUAGUGCUAAGGGGGCCUGGAAGUUUGGACUGGGCAGAGCUCAACACAGCGUGGCAAGGUGGCCGUGGCUAGACUGCCUCUCUGGAUUCCUCGUCACUCAGCAGGGCAUCUCUGAAAGAAAUGCC yielded a self-cleavage of 0.22.
UACGUAGGUGGUUUUCCCCUGAUAGUGCUAAGGGGGCCUGGAAGUUUGGACUGGGCAGAGCUCAACACAGCGUGGCAAGGAGGCUGUGGCUAGACUGCCUCUCUGGAUUCCUCGUCACUCAGCAGGGCAUCUCUGCGAGAAAUGCC showed a self-cleavage of 0.3.
UACGUAGGUGGUUUUCCCCUGAUAGUGCUAAGGGGGCCUGGAAGUUUGGACUGGGCAGAGCUCAACACAGCGUGGCAAGGCGGCUGUGGCUAGACUGCCUCUCUGGAUUCCUCGUCACUCAGCAGGGCAUCUCUGAGAGGAAUGCC gave a self-cleavage of 0.
